Changes are numbered by the printed parent chain.
T1: human erythropoietin receptor (huEpoR), cell surface expressed (human, UniProt P19235 25-508)
T1 sequence (looked up): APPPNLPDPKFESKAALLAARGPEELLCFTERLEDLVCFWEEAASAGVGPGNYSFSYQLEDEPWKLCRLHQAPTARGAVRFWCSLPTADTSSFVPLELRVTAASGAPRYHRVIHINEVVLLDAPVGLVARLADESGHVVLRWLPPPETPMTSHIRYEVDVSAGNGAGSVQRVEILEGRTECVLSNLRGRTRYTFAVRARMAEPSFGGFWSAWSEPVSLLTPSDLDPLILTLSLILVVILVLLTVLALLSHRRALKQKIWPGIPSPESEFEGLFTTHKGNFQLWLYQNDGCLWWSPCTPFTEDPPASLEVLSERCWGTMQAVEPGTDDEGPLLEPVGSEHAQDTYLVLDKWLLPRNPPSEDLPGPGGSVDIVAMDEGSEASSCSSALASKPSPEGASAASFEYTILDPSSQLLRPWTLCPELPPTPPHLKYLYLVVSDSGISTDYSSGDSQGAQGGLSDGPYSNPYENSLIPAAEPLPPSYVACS

T2: soluble human erythropoietin receptor protein (huEpoR) (human, UniProt P19235 25-250)
T2 construct: extracellular domain; Called soluble huEpoR; also called huEpoR protein; soluble huEpoR
T2 sequence (looked up): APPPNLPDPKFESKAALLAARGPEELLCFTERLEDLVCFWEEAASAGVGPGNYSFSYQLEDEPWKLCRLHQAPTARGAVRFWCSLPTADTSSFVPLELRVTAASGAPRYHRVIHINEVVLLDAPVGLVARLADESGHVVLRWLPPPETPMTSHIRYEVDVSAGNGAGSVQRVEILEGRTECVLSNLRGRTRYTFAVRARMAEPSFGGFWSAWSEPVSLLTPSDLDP

T3: mouse EpoR-Fc protein (muEpoR-Fc) (mouse, UniProt P14753 25-249)
T3 construct: Biotinylated in the assay; also called biotinylated muEpoR-Fc; not shown: Fc part not described
T3 sequence (looked up): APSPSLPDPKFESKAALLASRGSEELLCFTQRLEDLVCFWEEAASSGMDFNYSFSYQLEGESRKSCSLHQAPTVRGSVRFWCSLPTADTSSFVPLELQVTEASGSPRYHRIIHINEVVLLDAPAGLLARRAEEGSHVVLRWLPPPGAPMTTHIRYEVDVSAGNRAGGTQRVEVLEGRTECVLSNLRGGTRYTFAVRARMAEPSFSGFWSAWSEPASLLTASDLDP

T4: cynomolgus monkey EpoR (cynoEpoR) (cynomolgus monkey, UniProt A0A2K5WKK4 25-250)
T4 sequence: T2 sequence (looked up) with A19V, G47A, G49S, G51D, Q58H, V112I, S135G, V138I, T148A

B1: Mxb #2 scFv-Fc (Fc fusion)
chain: EVQLVQSGGGLVQPGGSLRLSCAASGFTFSSYWMSWVRQAPGKGLEWVANIKPDGSEKYYVDSVKGRFTISRDNAKNSVYLQMNSLRAEDTAVYYCARVSRGGSYSDWGQGTLVTVSSGGGGSGGGGSGGGGSAQSVLTQPPSASGSPGQSVTISCTGTSSDVGGYNYVSWYQQHPGKAPKLMIYEVSKRPSGVPDRFSGSKSGNTASLTVSGLQPEDEADYYCSSYAGRNWVFGGGTQLTVLGAAA[letters of human IgG1 Fc omitted]
notes: scFv (VH-linker-VL) fused to human IgG1 Fc (maxibody); also called clone 2 scFv-Fc protein
B2: Mxb #5 scFv-Fc (Fc fusion)
chain: EVQLVESGGGLVQPGGSLRLSCAASGFTFSSYWMSWVRQAPGKGLEWVANIKPDGSEKYYVDSVKGRFTISRDNAKNSVYLQMNSLRAEDTAVYYCARVSRGGSYSDWGQGTLVTVSSGGGGSGGGGSGGGGSAQSALTQPASVSGSPGQSITISCTGTSSDVGGYIYVSWYQQHPGKAPKLMIYDVSRRPSGISDRFSGSKSGNTASLTISGLQAEDEADYYCNSYTTLSTWLFGGGTKVTVLGAAA[letters of human IgG1 Fc omitted]
notes: scFv fused to human IgG1 Fc (maxibody); also called clone 5 scFv-Fc protein
B3: Mxb #7 scFv-Fc (Fc fusion)
chain: EVQLVQSGGGLVQPGGSLRLSCAASGFTFSSYWMSWVRQAPGKGLEWVANIKPDGSEKYYVDSVKGRFTISRDNAKNSVYLQMNSLRAEDTAVYYCARVSRGGSYSDWGKGTLVTVSSGGGGSGGGGSGGGGSAQSALTQPASVSGSPGQSIIISCTGTRSDIGGYNYVSWYQHHPGRAPKLIIFDVNNRPSGVSHRFSGSKSGNTASLTISGLQAEDEADYYCNSFTDSRTWLFGGGTKLTVLGAAA[letters of human IgG1 Fc omitted]
notes: scFv fused to human IgG1 Fc (maxibody); also called clone 7 scFv-Fc protein
B4: Mxb #30 scFv-Fc (Fc fusion)
chain: QVQLQESGPGLVKPSQTLSLTCAISGDSVSSNSAAWNWIRQSPSRGLEWLGRTYYRSKWYNDYAVSVKSRMTIKADTSKNQFSLQLNSVTPEDTAVYYCARDEGPLDYWGQGTLVTVSAGGGGSGGGGSGGGGSGAPQAVLTQPSSVSGAPGQRVTISCTGSSSNLGTGYDVHWYQQLPGTAPKLLIYGNSNRPSGVPDRFSGSKSDTSGLLAITGLQAEDEATYYCQSYDFSLSAMVFGGGTKVTVLAAA[letters of human IgG1 Fc omitted]
notes: scFv fused to human IgG1 Fc (maxibody); also called clone 30 scFv-Fc protein
B5: Mxb #10 scFv-Fc (Fc fusion)
chain: [letters of about 100 residues omitted]DRVAVAGKGSYYFDSWGRGTTVTVSSGGGGSGGGGSGGGGSAQSVLTQPPSVSEAPGQRVTIACSGSSSNIGNNAVSWYQQLPGKAPTLLIYYDNLLPSGVSDRFSGSKSGTSASLAISGLQSEDEADYYCAAWDDSLNDWVFGGGTKVTVLGAAA[letters of human IgG1 Fc omitted]
notes: scFv fused to human IgG1 Fc (maxibody); also called clone 10 scFv-Fc protein

Each binder was assayed against T1, human erythropoietin receptor (huEpoR), … (assay: cell-based or functional assay).
With B1 the “Average EC50, UT-7-luciferase assay” value was 0.604 nM.
In the case of B2, the “Average EC50, UT-7-luciferase assay” value is reported as 0.791 nM.
B3 was tested, and the “Average EC50, UT-7-luciferase assay” value was 0.468 nM.
With B4 the “Average EC50, UT-7-luciferase assay” value was 0.67 nM.

Each binder was assayed against T2, soluble human erythropoietin receptor … (assay: SPR, BIAcore 3000; scFv-Fc captured by anti-human Fc on CM4 chip, huEpoR as analyte).
With B1 the Kd was 334 nM, the koff was 0.136 s⁻¹ and the kon was 410000 M⁻¹ s⁻¹.
Work on B2 yielded a Kd of 217 nM, a koff of 0.0612 s⁻¹ and a kon of 280000 M⁻¹ s⁻¹.
Work on B3 yielded a Kd of 271 nM, a koff of 0.0541 s⁻¹ and a kon of 200000 M⁻¹ s⁻¹.
B4 showed a Kd of 14900 nM, a koff of 0.274 s⁻¹ and a kon of 18000 M⁻¹ s⁻¹.

These binders were tested against T3, mouse EpoR-Fc protein (muEpoR-Fc) (assay: ELISA: antibody coated at 1 µg/ml, biotinylated muEpoR-Fc at 5 µg/ml, streptavidin-HRP, ABTS).
B1: binds.
B2: binds.
B3: binds.
B5: binds.

The binders below were run against T4, cynomolgus monkey EpoR (cynoEpoR) (assay: SPR, Biacore T100; scFv-Fc captured by anti-human IgG Fc on CM5 chip, EpoR as analyte).
B2 showed a Kd of 140 nM, a koff of 0.0611 s⁻¹ and a kon of 437000 M⁻¹ s⁻¹.
With B4 the Kd was 2310 nM, the koff was 0.485 s⁻¹ and the kon was 211000 M⁻¹ s⁻¹.
Binder B5 has a Kd of 6.83 nM, a koff of 0.00107 s⁻¹ and a kon of 156000 M⁻¹ s⁻¹.

Source: patent US20080124340A1 (published 2008)
